Reference: PubChem BioAssay AID720708 (National Center for Advancing Translational Sciences (NCATS), 2013)
Hit rate of the full screen: of about 360,000 compounds, about 660 (0.18%) were called active. The inconclusive results got no clear call from the source; some entries with a clear call stand among them for comparison. Calls come from the whole dose curve; as a rule, active = well fitted inhibition curve with a large enough effect; inconclusive = small, poorly fitted or top-dose-only effect; inactive = no such curve, though single readings can be large or run the other way. Potencies of inconclusive entries are left out as doubtful fits.

What follows are molecules tested against Rap guanine nucleotide exchange factor 4 (Homo sapiens) (UniProt Q8WZA2) (assay: qHTS for Antagonist of cAMP-regulated guanine nucleotide exchange factor 2 (EPAC2): primary screen). Conditions: EPAC2 GEF exchange of Rap1B-BODIPY-GDP, fluorescence; activity, negative = inhibition: at 114 µM (top of the series) unless noted.
Sequence of UniProt Q8WZA2 (Q8WZA2 whole entry, looked up): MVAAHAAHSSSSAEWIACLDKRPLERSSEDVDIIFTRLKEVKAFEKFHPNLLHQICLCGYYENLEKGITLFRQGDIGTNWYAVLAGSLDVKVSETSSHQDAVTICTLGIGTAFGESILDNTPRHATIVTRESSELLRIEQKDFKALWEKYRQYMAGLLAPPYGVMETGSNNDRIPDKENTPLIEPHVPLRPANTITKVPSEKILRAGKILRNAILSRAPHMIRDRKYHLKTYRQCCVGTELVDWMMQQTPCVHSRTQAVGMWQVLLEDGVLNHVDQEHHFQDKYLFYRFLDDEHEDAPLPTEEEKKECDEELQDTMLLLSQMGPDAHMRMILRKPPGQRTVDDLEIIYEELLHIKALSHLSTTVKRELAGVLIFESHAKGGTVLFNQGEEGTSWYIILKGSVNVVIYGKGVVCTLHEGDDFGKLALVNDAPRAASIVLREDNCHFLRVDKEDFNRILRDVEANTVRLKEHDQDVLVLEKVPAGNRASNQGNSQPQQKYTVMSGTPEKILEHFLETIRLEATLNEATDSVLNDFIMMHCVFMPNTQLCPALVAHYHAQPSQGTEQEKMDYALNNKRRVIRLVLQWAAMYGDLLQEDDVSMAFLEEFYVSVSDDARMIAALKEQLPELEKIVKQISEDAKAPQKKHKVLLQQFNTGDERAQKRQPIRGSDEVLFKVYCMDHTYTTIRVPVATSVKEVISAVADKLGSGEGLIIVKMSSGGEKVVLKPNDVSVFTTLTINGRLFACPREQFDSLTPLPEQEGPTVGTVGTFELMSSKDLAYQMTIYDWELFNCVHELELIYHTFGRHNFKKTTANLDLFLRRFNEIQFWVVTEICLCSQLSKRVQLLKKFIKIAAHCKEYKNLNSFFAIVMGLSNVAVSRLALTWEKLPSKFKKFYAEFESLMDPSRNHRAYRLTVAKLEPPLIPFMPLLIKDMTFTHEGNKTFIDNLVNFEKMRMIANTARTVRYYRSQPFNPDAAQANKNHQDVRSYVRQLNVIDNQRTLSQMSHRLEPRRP
% is set by controls: 0 for no effect and ±100 for the full control effect; potency is the fitted concentration of half-maximal effect; tags give direction and shape of the fitted curve.
Note: nearly all actives have a fitted effect of over 45% in size.

Structure (SMILES) | Potency | activity, negative = inhibition
CCc1nc2c(OCc3ccc(C(F)(F)F)cc3)cccn2c1N(C=O)Cc1ccc(OC)cc1 | inconclusive [inhibitor, full curve, poor fit] | 
Cc1cc(C)c(S(=O)(=O)/N=C2/C=C(SCC(=O)O)C(=O)c3ccccc32)cc1C |  | inactive: -15.3%
O=C(CSc1nccc(-c2cccs2)n1)Nc1ccc(F)c(Cl)c1 | inconclusive [inhibitor, single point] | 
N#Cc1c(-c2c(Cl)cccc2Cl)noc1/C=C/Nc1ccc(C(=O)O)cc1 | inconclusive [inhibitor, full curve] | 
O=C1CC(c2ccccc2)=C(c2ccccc2)C1 | inconclusive [inhibitor, partial curve] | 
COCOCCn1cc(CN2CCS(=O)(=O)N(Cc3ccc(-c4ccc(OC)cc4)cc3)C(CC(C)C)C2=O)nn1 (stereo not drawn) | inconclusive [inhibitor, full curve] | 
CC(C)=CCc1c(O)ccc2c1OC(c1ccc(O)c(O)c1)CC2=O (stereo not drawn) | inconclusive [inhibitor, single point] | 
CCNc1nc(Cl)nc(N(NC(C)=O)C(C)CC)n1 (stereo not drawn) | inconclusive [inhibitor, partial curve] | 
O=C(Nc1c(-c2ccccc2)nc2ccccn12)c1cccc(F)c1 |  | inactive: 3.55%
CC(C)CC1C(=O)N(Cc2cn(CCC3OCCO3)nn2)CCS(=O)(=O)N1Cc1ccc(-c2ccccc2)cc1 (stereo not drawn) | inconclusive [inhibitor, full curve, poor fit] | 
CC1CCCCN1C(=O)C1CCN(c2nc(-c3ccccc3)nc3c2CCC3)CC1 (stereo not drawn) | inconclusive [inhibitor, full curve] | 
COc1ccc2c(c1)C(CC(C)=O)N(c1ccc(-c3cnc(OC)nc3)cc1)C(c1ccsc1)=C2 (stereo not drawn) | inconclusive [inhibitor, full curve, poor fit] | 
O=C1NC[C@H](Cc2ccccc2)N(C[C@@H]2CCCN2C[C@H](Cc2ccc(O)cc2)N2C[C@H](Cc3ccc(O)cc3)N(CC3CCCCC3)C(=O)C2=O)C1=O | inconclusive [inhibitor, full curve] | 
Clc1nccnc1N/N=C/c1ccc(Br)cc1 | inconclusive [inhibitor, single point] | 
CC(=O)N1CCC(C(=O)N2c3ccccc3N=C(c3ccc4c(c3)OCO4)C2C(=O)Nc2c(C)cccc2C)CC1 (stereo not drawn) |  | inactive: 2.89%
COc1ccc(C(=O)Nc2cc(OC)c(Cl)cc2OC)cc1 | inconclusive [inhibitor, full curve] | 
CCOC(=O)c1c(-c2ccccc2)oc2ccc(OCC(O)CN(C)C)cc12 (stereo not drawn) |  | inactive: -11.6%
Cc1c(C(=O)N(C)Cc2nc3ccccc3c(=O)[nH]2)oc2ccccc12 |  | inactive: -4.41%
CCOC(=O)[C@]12CCCC=C1N(Cc1ccco1)C(=O)[C@H](CC(=O)NCc1cccc3ccccc13)C2 | inconclusive [inhibitor, full curve] | 
N=C1C2=C3Sc4ccccc4N3CCCC2=NN1c1cccc(S(=O)(=O)O)c1 | inconclusive [inhibitor, partial curve] | 
CCOC(=O)C1=C(C)OC(N)=C(C#N)C1c1cc2c(cc1[N+](=O)[O-])OCO2 (stereo not drawn) | inconclusive [inhibitor, partial curve] | 
OC(c1ccco1)c1nc(-c2ccc(F)c(Cl)c2)cs1 (stereo not drawn) | inconclusive [inhibitor, full curve] | 
CC(C)=CCC12Oc3cc(O)ccc3C1(O)Oc1cc3c(c(O)c1C2=O)C=CC(C)(C)O3 (stereo not drawn) | inconclusive [inhibitor, partial curve] | 

Structure (SMILES) | Potency | activity, negative = inhibition
O=C1c2cccc3c(N4CCCCC4)ccc(c23)C(=O)N1c1cccc(O)c1 |  | inactive: 78.8%
O=C1OC(c2ccccc2)(N(Nc2ccccc2)c2ccccc2)c2ccccc21 (stereo not drawn) | inconclusive [inhibitor, partial curve] | 
CCOc1ccc(CCNC(=O)COC(=O)c2ccc(OC(C)C)cc2)cc1OCC | inconclusive [inhibitor, single point] | 
COc1ccccc1-c1c(C)nn2c(-c3ccccc3)cc(C)nc12 | inconclusive [inhibitor, full curve] | 
COc1ccccc1-c1sc2ccccc2c1-c1ccc2c(c1)OCO2 | inconclusive [inhibitor, partial curve, poor fit] | 
CCn1nnc(NC(=S)NC(=O)c2ccc(-c3cccc(Cl)c3)o2)n1 | inconclusive [inhibitor, single point] | 
O=C(NC(=S)Nc1cc(C(F)(F)F)ccc1N1CCOCC1)c1ccco1 | inconclusive [inhibitor, full curve, poor fit] | 
OC(c1ccccc1)(c1ccccc1)c1nccc2ccccc12 | inconclusive [inhibitor, partial curve] | 
Ic1ccc(N2CCN(Cc3c[nH]c4ncccc34)CC2)cc1 |  | inactive: 7.43%
COc1cc2c(cc1OC)CN(S(=O)(=O)c1ccccc1F)CC2 | inconclusive [inhibitor, partial curve, poor fit] | 
CCOC(=O)C1=C(C)c2ccccc2OC1(C)C(=O)OCC (stereo not drawn) | inconclusive [inhibitor, single point] | 
O=C1CN(c2nc(-c3cccs3)nc3sc4c(c23)CCCC4)CCN1 | inconclusive [inhibitor, partial curve, poor fit] | 
O=C(O)CCCN1C(=O)/C(=C\c2ccccc2OCc2ccccc2)SC1=S | inconclusive [inhibitor, partial curve] | 
COc1ccc(OCc2nnc3n2N=C(c2ccc(Br)cc2)CS3)cc1 | inconclusive [inhibitor, full curve] | 
Cc1ccc(-c2ccccc2C2=CC(=O)CC(C)(C)C2=O)cc1 | inconclusive [inhibitor, full curve] | 
Cc1cccc(NC(=O)CSc2nnc(-c3n[nH]c4ccccc34)o2)c1 |  | inactive: 3.32%
Fc1cccc(Cc2c(-c3ccccc3)nc3ccc(Br)cn23)c1 | inconclusive [inhibitor, partial curve] | 
O=C(NN=Cc1ccc2c(c1)OCO2)C1CC1 |  | inactive: -20.2%
COc1ccccc1Cc1nnnn1CC(=O)O |  | inactive: -0.684%
COc1ccc(C(C#N)=Cc2cccc(OC)c2OC)cc1 | inconclusive [inhibitor, full curve] | 
CCCCCCCCNS(=O)(=O)CCNCCc1ccccc1 |  | inactive: -19.7%
Cc1ccc(NCc2ccccc2O)cc1C | inconclusive [inhibitor, partial curve] | 
CCC(C)NC(=O)c1cccc(C)c1 (stereo not drawn) | inconclusive [inhibitor, single point] | 

Structure (SMILES) | Potency | activity, negative = inhibition
CC(C)c1ccc(OCC(=O)N(Cc2ccccc2)c2ccccn2)cc1 | inconclusive [inhibitor, partial curve] | 
CC(=O)N1c2ccccc2N(Cc2ccc(C)cc2C)C(=O)C1(C)C | inconclusive [inhibitor, partial curve] | 
CN(C)c1ccc(/C=C(\C#N)C(=O)c2ccccc2)cc1 |  | inactive: 28.2%
CC(C)CNS(=O)(=O)c1ccc(Br)cc1N1CCC[C@@H]1CO |  | inactive: -5.49%
C/C(CCc1ccc2c(c1)OCO2)=N\NC(=O)c1ccc(C)cc1C | inconclusive [inhibitor, single point] | 
Cc1cc(C)c(C(=O)COC(=O)c2cc([N+](=O)[O-])ccc2N2CCOCC2)cc1C |  | inactive: 1.47%
CCOC(=O)C1=CCN(S(=O)(=O)c2ccc(F)cc2)C1c1ccc(F)cc1 (stereo not drawn) | inconclusive [inhibitor, partial curve] | 
COc1ccc(N2CCN(c3nccs3)CC2)cc1 | inconclusive [inhibitor, partial curve] | 
COc1ccc(C(CC(=O)N2CCCC2)c2c(OC)cc(OC)c3c(-c4ccccc4)cc(=O)oc23)cc1 (stereo not drawn) | inconclusive [inhibitor, partial curve] | 
C=CCn1c(NC(C)c2cc(Cl)ccc2O)nc2ccccc21 (stereo not drawn) | inconclusive [inhibitor, partial curve] | 
CC1(C(=O)NS(=O)(=O)c2cccc(Cl)c2)CCN1C(=O)C1(c2ccc(Cl)cc2)CCC1 (stereo not drawn) | inconclusive [inhibitor, single point] | 
NS(=O)(=O)c1ccc(NCc2ccccc2OCc2ccccc2F)cc1 |  | inactive: -0.384%
O=C(NCc1ccccc1)c1[nH]c(C(F)(F)F)nc1-c1ccccc1 |  | inactive: 4.63%
COc1cccc(NC(=O)CCC(=O)Nc2cccc(OC)c2)c1 |  | inactive: 8.28%
Cc1cccc(NC(=O)CSCC(=O)N(C)Cc2ccc(Cl)c(Cl)c2)c1 | inconclusive [inhibitor, partial curve] | 
Cc1cc(C)cc(NC(=S)NCCSc2ccc(Cl)cc2)c1 |  | inactive: -17.4%
CC(=O)C1C(=O)C=C(c2cccs2)CC1c1ccccc1 (stereo not drawn) | inconclusive [inhibitor, partial curve] | 
COC(=O)C(c1ccccc1)C(CC(=O)c1ccccc1)c1ccccc1 (stereo not drawn) | inconclusive [inhibitor, full curve] | 
CC1=C/C(=C(\c2cc(C)c(O)c(Br)c2)c2ccccc2S(=O)(=O)O)C=C(Br)C1=O | active: 39.8 µM | 
CC(=O)Nc1cnc(-c2ccc3c(c2)OCO3)cn1 |  | inactive: 9.72%
Cc1ccccc1NS(=O)(=O)c1cc2c(cc1C)N(C)CCO2 | inconclusive [inhibitor, full curve] | 
Cc1cccc(C)c1Nc1c(-c2ccccn2)nc2ccccn12 | inconclusive [inhibitor, partial curve, poor fit] | 
